# PubChem BioAssay AID540317 (National Center for Advancing Translational Sciences (NCATS), 2011)
# The campaign covered roughly 390,000 compounds. About 2,200 (0.56%) were called active. Inconclusive results, whose numbers are uncertain, are shown with a selection of clear calls. Calls come from the whole dose curve; as a rule, active = well fitted inhibition curve with a large enough effect; inconclusive = small, poorly fitted or top-dose-only effect; inactive = no such curve, though single readings can be large or run the other way. Potencies of inconclusive entries are doubtful fits and often do not repeat.
# Biological target: Chromobox protein homolog 1 (Homo sapiens) (UniProt P83916)
# Sequence of UniProt P83916 (P83916 whole entry, looked up): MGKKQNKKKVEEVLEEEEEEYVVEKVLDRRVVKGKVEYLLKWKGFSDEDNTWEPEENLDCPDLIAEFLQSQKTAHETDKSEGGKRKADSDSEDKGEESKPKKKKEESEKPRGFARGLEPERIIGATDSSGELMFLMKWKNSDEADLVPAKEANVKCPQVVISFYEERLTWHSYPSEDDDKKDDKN
# Test: HTS for Inhibitors of HP1-beta Chromodomain Interactions with Methylated Histone Tails; note: nearly all actives have a fitted effect of over 70% in size
# Settings: AlphaScreen HP1-beta / biotin-H3K9me3 peptide binding; series mostly up to 114 µM
# How it was run: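 HP1-beta protein (50 nM final) preincubated 30 min at room temperature with biotinylated H3(1-18)K9me3 peptide (50 nM) in PBS pH 7.4, 0.01% Tween-20, then compound added for 30 min. AlphaScreen streptavidin donor/nickel chelate acceptor beads (10 ug/mL final), 30 min dark, luminescence read.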
# Potency is the fitted concentration of half-maximal effect; tags give direction and shape of the fitted curve.
row,SMILES,Potency
1,O=C(CCC(=O)OCC(=O)c1ccc(Br)cc1)Nc1ccc(Br)c2cccnc12,"inconclusive: 28.2 µM [inhibitor, single point]"
2,COc1cc(CN2CCc3ccccc3C2)ccc1O,"inconclusive: 31.6 µM [inhibitor, partial curve, poor fit]"
3,CCOc1ccccc1OCC(=O)Nc1cc2c(cc1C(=O)O)OCCCO2,inactive
4,O=C(CCCN1C(=O)/C(=C/c2ccccc2Cl)SC1=S)N1CCCC1,"inconclusive: 15.8 µM [inhibitor, single point]"
5,CCC(C)Nc1c([N+](=O)[O-])cc(C)cc1[N+](=O)[O-] (stereo unspecified),"inconclusive: 35.5 µM [inhibitor, single point]"
6,Nc1ccccc1Nc1ccccc1,"inconclusive: 35.5 µM [inhibitor, full curve]"
7,CCOC(=O)C1CCN(C(c2ccccn2)c2c(C)[nH]c3ccccc23)CC1 (stereo unspecified),"inconclusive: 100 µM [inhibitor, single point]"
8,COc1ccc(NC(=O)CN(C)C(=O)CSc2nc3ccccc3s2)cc1,inactive
9,COc1ccc(-c2sc3ccccc3c2-c2ccc(OCCN(C)C)cc2)cc1,"inconclusive: 44.7 µM [inhibitor, partial curve]"
10,N#Cc1ccsc1NC(=O)COc1ccc(-c2nnco2)cc1,inactive
11,C/C(=N/Nc1ccc(C(=O)O)cc1)c1ccc2c(c1)Nc1ccccc1S2,"inconclusive: 79.4 µM [inhibitor, single point]"
12,CCCNC(=O)NS(=O)(=O)c1ccc(Cl)cc1,inactive
13,CC12CCC(=O)N1C(C(=O)NNC(=O)c1ccc(Br)cc1)CS2 (stereo unspecified),inactive
14,CN1C(=O)/C(=C\c2ccco2)N=C1c1ccc(Cl)cc1Cl,"inconclusive: 70.8 µM [inhibitor, partial curve, poor fit]"
15,Cc1cc(C)n2c(Br)c(CSc3nc4ccccc4o3)nc2n1,inactive
16,CC(OC(=O)CC1CC2CCC1C2)C(=O)Nc1cccc(S(=O)(=O)N2CCOCC2)c1 (stereo unspecified),inactive
17,CC(C)C(NC(=O)c1ccccc1Cl)C(=O)OCc1nc2scc(-c3ccccc3Cl)c2c(=O)[nH]1 (stereo unspecified),"inconclusive: 39.8 µM [inhibitor, single point]"
18,Cc1cc(S(=O)(=O)N(C)CCc2ccccc2)ccc1-n1cnnn1,inactive
19,CCOC(=O)C1CCCN(Cc2ccc(OC)cc2OC)C1 (stereo unspecified),"inconclusive: 39.8 µM [inhibitor, partial curve]"
20,C[C@@H]1NC(=O)N[C@@H]1CCCCCC(=O)O,"inconclusive: 0.708 µM [inhibitor, full curve, poor fit]"
21,CCCNc1ncc2c(=O)[nH][nH]c(=O)c2n1,inactive
22,C=C(CN(C)C)C(=O)c1ccc2c(c1)OCO2,"inconclusive: 17.8 µM [inhibitor, full curve, poor fit]"
23,CC(O)Cc1nsc(NC(=O)c2cccs2)n1 (stereo unspecified),inactive
24,N=C1C(c2ccccc2)=C(O)CN1c1cccc(S(N)(=O)=O)c1,inactive

row,SMILES,Potency
1,O=C(CNCc1ccccc1Cl)NCc1ccco1,active: 22.4 µM
2,CCN1CCCC(OC(=O)c2cc(-c3ccccc3Cl)nc3ccccc23)C1 (stereo unspecified),inactive
3,COc1ccccc1C1C(C#N)=C(N)Oc2cc(C)n(Cc3ccccn3)c(=O)c21 (stereo unspecified),inactive
4,Cc1cccc(/C=N/c2sc3c(c2C(=O)OC(C)(C)C)CCN(C)C3)c1O,"inconclusive: 17.8 µM [inhibitor, full curve, poor fit]"
5,COc1ccc(-c2cnc(SCC(=O)Nc3cc(C)on3)n2Cc2ccco2)cc1,"inconclusive: 50.1 µM [inhibitor, partial curve]"
6,COCCCNC(=O)c1ccc2c3c(onc13)-c1ccccc1C2=O,"inconclusive: 56.2 µM [inhibitor, single point]"
7,CC(=O)c1nnn(-c2ccc([N+](=O)[O-])cc2C)c1C,"inconclusive: 39.8 µM [inhibitor, single point]"
8,C/C(N)=C(/C#N)C(=O)CSc1nnc(Nc2ccccc2C)s1,inactive
9,O=C(Nc1csc([N+](=O)[O-])c1)Nc1ccccc1Cl,inactive
10,Clc1ccc(-c2nnc(-c3cccnc3)o2)cc1,inactive
11,COc1ccc2c(c1)Sc1ccccc1N2,active: 28.2 µM
12,COc1cccc(NC(=O)CSc2nnc(-c3ccco3)c(-c3ccco3)n2)c1,"inconclusive: 44.7 µM [inhibitor, partial curve]"
13,Cc1ccc(/C(N)=N/OC(=O)Cc2cccs2)cc1,inactive
14,CN(C)C1(CN=Cc2cc(Cl)cc([N+](=O)[O-])c2O)CCCCC1,"inconclusive: 39.8 µM [inhibitor, partial curve]"
15,Cc1nn(-c2ccccc2)c2c1C(c1ccc(Br)s1)C(C#N)=C(N)O2 (stereo unspecified),"inconclusive: 11.2 µM [inhibitor, full curve]"
16,COC(=O)c1cc(=O)nc2sc(-c3ccc(F)cc3)nn12,"inconclusive: 70.8 µM [inhibitor, single point]"
17,O=C(O)CC(CCc1ccccc1)OC1OC(CO)C(O)C(O)C1O (stereo unspecified),"inconclusive: 8.91 µM [inhibitor, full curve, poor fit]"
18,COc1ccc(Cl)cc1NC(=O)Cn1c(=O)c(-c2ccccc2NC(C)=O)nc2ccccc21,inactive
19,COc1ccc(N2CCN(C(c3ccccc3F)c3sc4nc(-c5ccco5)nn4c3O)CC2)cc1 (stereo unspecified),"inconclusive: 50.1 µM [inhibitor, partial curve]"
20,CN1/C(=C\C(=S)NC(=O)c2ccc([N+](=O)[O-])cc2)C(C)(C)c2ccccc21,"inconclusive: 17.8 µM [inhibitor, partial curve, poor fit]"
21,CC1CCN(S(=O)(=O)c2ccc(NC(=O)CN3CCN(C)CC3)cc2)CC1,"inconclusive: 22.4 µM [inhibitor, partial curve]"
22,Cc1cccc(NC(=O)CSc2nnc(-c3ccco3)c(-c3ccco3)n2)c1C,"inconclusive: 56.2 µM [inhibitor, single point]"
23,O=C(/C=C/c1ccco1)c1cccc([N+](=O)[O-])c1,"inconclusive: 56.2 µM [inhibitor, single point]"
24,O=C(C=Cc1ccco1)c1ccc([N+](=O)[O-])cc1,"inconclusive: 63.1 µM [inhibitor, partial curve, poor fit]"

row,SMILES,Potency
1,Cc1cc(Cl)ccc1OCC(=O)N1CCC(c2nc3ccccc3s2)CC1,inactive
2,Cc1cc(Cl)c(OCCOCCN2CCCCC2)c(Br)c1,"inconclusive: 22.4 µM [inhibitor, full curve]"
3,Brc1cccc(CN2CCN(c3ncccn3)CC2)c1,"inconclusive: 50.1 µM [inhibitor, partial curve]"
4,Cc1c(Cl)ccc2c1NC(=O)[C@]21N[C@@H](Cc2ccccc2)[C@H]2C(=O)N(c3ccc(F)cc3)C(=O)[C@H]21,inactive
5,Cc1cc(C)c(C2C3=C(Nc4c2c(C)nn4-c2ccccn2)c2ccccc2C3=O)c(C)c1 (stereo unspecified),"inconclusive: 35.5 µM [inhibitor, partial curve]"
6,COc1ccccc1N1CCN(/N=C\c2ccc(C)o2)CC1,"inconclusive: 1.41 µM [inhibitor, partial curve, poor fit]"
7,CCCN1C(=O)/C(=C/c2cc(C)n(C)c2C)SC1=Nc1ccc(OC)cc1,"inconclusive: 56.2 µM [inhibitor, partial curve, poor fit]"
8,COCC(C)NCc1cccc([N+](=O)[O-])c1 (stereo unspecified),"inconclusive: 44.7 µM [inhibitor, partial curve]"
9,O=C(O)CCc1ccc(-c2ccc(Br)cc2)n1-c1ccc(O)cc1,"inconclusive: 50.1 µM [inhibitor, partial curve]"
10,CCC(C)NCCCCOc1cc(C)cc(C(C)C)c1 (stereo unspecified),"inconclusive: 20 µM [inhibitor, partial curve, poor fit]"
11,Cc1nc(N2CCCCC2)sc1C(=O)c1cccc([N+](=O)[O-])c1,"inconclusive: 39.8 µM [inhibitor, partial curve]"
12,Cc1ccc2nc(-c3cc(NC(=O)COc4ccc(C)c(C)c4)ccc3Cl)oc2c1,inactive
13,COc1ccc(-c2nc(C)sc2C)cc1,"inconclusive: 17.8 µM [inhibitor, partial curve, poor fit]"
14,O=C(CCCSc1ccc(Cl)cc1)Nc1cc(S(=O)(=O)N2CCOCC2)ccc1O,"inconclusive: 28.2 µM [inhibitor, partial curve]"
15,CC1(C)CC(=O)C2=C(C1)NC1=C(C(=O)c3ccccc31)C2c1ccc(Cl)cc1 (stereo unspecified),"inconclusive: 20 µM [inhibitor, partial curve, poor fit]"
16,COc1ccc(C(=O)N2c3cc4c(cc3C(C)=CC2(C)C)OCO4)cc1,"inconclusive: 31.6 µM [inhibitor, single point]"
17,COC(=O)CCCC1=CC2=C(c3ccccc3)C(=O)C(C)(OC(=O)C3CCCC3)C(=O)C2=CN1C1CCCCC1 (stereo unspecified),"inconclusive: 35.5 µM [inhibitor, partial curve, poor fit]"
18,CCN1C(=O)/C(=C\c2nc3ccccc3c(=O)n2CC)c2ccccc21,"inconclusive: 39.8 µM [inhibitor, partial curve]"
19,COc1ccc(CNCc2ccc3ccccc3c2)c(OC)c1,"inconclusive: 31.6 µM [inhibitor, partial curve, poor fit]"
20,Cn1ncc(=S)[nH]c1=S,inactive
21,Oc1ccc2ccccc2c1N=Nc1ccc(F)cc1,active: 5.62 µM
22,O=C(NCc1ccco1)c1ccc(N2CCCCC2)c([N+](=O)[O-])c1,"inconclusive: 56.2 µM [inhibitor, single point]"
23,Cc1ccccc1-n1c(SC/C(O)=C(\C#N)c2nc3ccccc3[nH]2)nnc1-c1ccncc1,"inconclusive: 35.5 µM [inhibitor, single point]"
